Our source for the binding signal values is paper PMC12136788.

B1: ENSG00000130720:stop:overlap|stop_codon|ENSG00000130720|stop_codon|NA|stop_codon (ssRNA)
RNA: GGGAGUUCUACAGUCCGACGAUCGCUGGCAGUACUCACUCAAGUUCUCUGAGAUGAAGAUCCGGCCGGUCCGGGAGGACCGCUAGACUGGUGCACCUUGUCCUUGGCCCUGCUGGUCCCUGUCGCCCCAUCCCCGACCCCACCCAACAGAGGAUUGAGCAUCA
B2: chr16:46956839:46956924:-|3pUTR|ENSG00000069345|msi1_unk|FALSE|overlapping (ssRNA)
RNA: GGGAGUUCUACAGUCCGACGAUCAUCAAUCCAGAUGAACUGAGGGACAUCUGUUGGUCUAUGUAUAACUUUUAAAAUUGGUAUAGUAUCUACAGAGUGUAUAAUUUAAACUAACCACAAAGCUUUACAUCUUCAUUUUGACUGCAACAGAGGAUUGAGCAUCA
B3: chr11:57233576:57235861:-|three_prime_utr|ENSG00000134817|control|control|control (ssRNA)
RNA: GGGAGUUCUACAGUCCGACGAUCAGAGAAGCCUGGCGCCCUCGGCCCUCCCCGGCCUUUGCCCUUGCUUUCUGAAAAUCAGGUAGUGUGGCUACUCCUUGUCCUAUGCACAUCCUUUAACUGUCCCCUGAUUCUGCCCCGCCCCAACAGAGGAUUGAGCAUCA
B4: chr4:87981664:87981765:+|CDS|ENSG00000118785|msi1|FALSE|unique (ssRNA)
RNA: GGGAGUUCUACAGUCCGACGAUCCACUGAUUUUCCCACGGACCUGCCAGCAACCGAAGUUUUCACUCCAGUUGUCCCCACAGUAGACACAUAUGAUGGCCGAGGUGAUAGUGUGGUUUAUGGACUGAGGUCAAAAUCUAAGAACAACAGAGGAUUGAGCAUCA
B5: chr22:35295155:35295256:+|3pUTR|ENSG00000100281|unk|total|mutant (ssRNA)
RNA: GGGAGUUCUACAGUCCGACGAUCUUUCUUCUCCUGGCCCUGACAGAGCACUACAGCAUCAAAGUAAAUCUUUGGGGACAGUGCCGCCCAUCUGCAUCCUAUUUAAUUUCUUCCCUUCUCCCCACCAGUGUUGUCACAGGGCUACAACAGAGGAUUGAGCAUCA
B6: ENSG00000198589:be:win_3601|CDS|ENSG00000198589|bound_else_gene|NA|bound_elsewhere_windowed (ssRNA)
RNA: GGGAGUUCUACAGUCCGACGAUCGUAGAAUCAGACCUUGGUCAGAUGCUGGAGGAAGGGAAGAAAGCAACUAACCUCACUAGAGAAACCAAAUUAAUUAAUGAUUGUCAUGGUAGUGUCUCUGAGGCUUCUUCUGAGCAAAAGCAACAGAGGAUUGAGCAUCA
B7: chr1:225789428:225789553:+|3pUTR|ENSG00000143742|unk|total|mutant (ssRNA)
RNA: GGGAGUUCUACAGUCCGACGAUCUCCGAGAAAGUGUUGGGACAGAAAGUACUUUAUGUAACUAAGUGGGCUGUUCAGAAGCUCCGAGGUCAUUUUUUGUAAUUUUCUUUUUAAUUACUUCCGAGAGCCCGGGAUGCAAAUGUUCAACAGAGGAUUGAGCAUCA
B8: chr15:63071210:63071313:+|3pUTR|ENSG00000140416|unk|total|mutant (ssRNA)
RNA: GGGAGUUCUACAGUCCGACGAUCCCUUAAAUGCAAUUUAUUUACUUUUACCACUGUCACAGAAACAUCCACAAGAUACCAGCCCGGUCAGGGGGUGGGGAAAACACAUACAAAAAGGCAAGCCCAUGUCAGGGCGAUCCUGGUCAACAGAGGAUUGAGCAUCA
B9: ENSG00000124766:be:win_3251|3pUTR|ENSG00000124766|bound_else_gene|NA|bound_elsewhere_windowed (ssRNA)
RNA: GGGAGUUCUACAGUCCGACGAUCUCUCACACAGUUUAAAAAAUCAGCCCCUAAUUUCUCCAUGUUUACACUUCAAUCUGCAGGCUUCUUAAAGUGACAGUAUCCCUUAACCUGCCACCAGUGUCCACCCUCCGGCCCCCGUCUCAACAGAGGAUUGAGCAUCA
B10: chr15:80137503:80137604:+|CDS|ENSG00000086666|unk|total|mutant (ssRNA)
RNA: GGGAGUUCUACAGUCCGACGAUCCAAUUGCUCUUACAAUUACAAAGCCGAUGCUGCUGAGAAAAUCAGAAAAGAAAAUCCAGCCGUUGUUGGUGAAAAGAUCCAAAAGAUUUGAACUCCUGCUGGAAUACAAAAUUCUUGAGCCAACAGAGGAUUGAGCAUCA
B11: chr7:82953248:82953350:-|CDS|ENSG00000186472|unk|total|mutant (ssRNA)
RNA: GGGAGUUCUACAGUCCGACGAUCAACAGAUAUACACCCCAAACCAACAGGCCUAUCUUUAACUUCAAGUAUGACCUUAAAUUCCGUGACUUCAGCAGAUUAUAAAUUGCCUUCCCCUACCUCCCCACUUUCCCCACACUCCAACAACAGAGGAUUGAGCAUCA
B12: chr12:51809400:51809501:+|3pUTR|ENSG00000196876|unk|FALSE|unique (ssRNA)
RNA: GGGAGUUCUACAGUCCGACGAUCCUGCCUUGCAGUAGAAGCACUUUGAAGGUAAUUUCACAGUCCACCAGACUAGUUUUGCAUAGAACAAACCACAGUAAGUCGGCAAGCAGAGCUUUCUAUCUUGUUGGACCACUAGAAACUCAACAGAGGAUUGAGCAUCA
B13: chr2:197486603:197486717:-|3pUTR|ENSG00000144381|unk|FALSE|unique (ssRNA)
RNA: GGGAGUUCUACAGUCCGACGAUCCCACCAGAUGAGAAGUUAAGCAGCCUUUCUGUGGAGAGUGAGAAUAAUUGUGUACAAAGUAGAGAAGUAUCCAAUUAUGUGACAACCUUUGUGUAAUAAAAAUUUGUUUAAAGUUAAUAACAACAGAGGAUUGAGCAUCA
B14: ENSG00000070961:be:win_5001|3pUTR|ENSG00000070961|bound_else_gene|NA|bound_elsewhere_windowed (ssRNA)
RNA: GGGAGUUCUACAGUCCGACGAUCGAAUCAGAUUAAGAAAAUUAACACAAUUUUACCAUUUGACAUACUCUUCAUUGAAUUUAGUUUGUCUAAAAUAGUCUCACAGGUAAAAAACAUAACAACAAUGACCACCAUUGUCUUUGACAACAGAGGAUUGAGCAUCA
B15: chrX:21994482:21994713:+|3pUTR|ENSG00000102172|msi1|total|mutant (ssRNA)
RNA: GGGAGUUCUACAGUCCGACGAUCCAGCUGAAGGAUGGUCCGACAGCACAGCGAAGACUGCUAAAUGCACUGACCCCCCCCAUCCGAAUGUGAUUUUUGUUCCUUUUUAUUUCUCUGUGGGCUUUUGUUUUUGUUUUUGUUUUGCAACAGAGGAUUGAGCAUCA
B16: ENSG00000107863:be:win_5901|3pUTR|ENSG00000107863|bound_else_gene|NA|bound_elsewhere_windowed (ssRNA)
RNA: GGGAGUUCUACAGUCCGACGAUCAAGUAAAAAAACUACUGUUACACGUUCCAGUAACUCUGUCAAUAUUUUCUUGUAUCAGAAUUGUUAUUAUGCAGCCUUCAUUUGGGCUGGUUUCAUCAUUUUGCACUGUGAAAUAGCUUUCAACAGAGGAUUGAGCAUCA
B17: chr22:29286963:29287064:+|CDS|ENSG00000182944|unk|FALSE|unique (ssRNA)
RNA: GGGAGUUCUACAGUCCGACGAUCCAGAGCAGUUACUCUCAGCAGAACACCUAUGGGCAACCGAGCAGCUAUGGACAGCAGAGUAGCUAUGGUCAACAAAGCAGCUAUGGGCAGCAGCCUCCCACUAGUUACCCACCCCAAACUCAACAGAGGAUUGAGCAUCA
B18: chr8:17753977:17754079:-|CDS|ENSG00000129422|unk|FALSE|bound_elsewhere (ssRNA)
RNA: GGGAGUUCUACAGUCCGACGAUCAAAAAAGCAGAAAUUCUAAUUAACAAGACACAUAAGCAGCAGUUUAAUAAACUCAUUACUAGCCAGGCUGUGCAUGUUACAACUCAUUCUAAAAAUGCUUCACACAGGGUUCCAAGAACACAACAGAGGAUUGAGCAUCA
B19: chr2:159230815:159230918:+|CDS|ENSG00000115183|unk|FALSE|unique (ssRNA)
RNA: GGGAGUUCUACAGUCCGACGAUCAACCUGUUCUGUUUCUACCCUGAGUGCAAGUGUCCACAAUGGGGCACAAGUGAAGGAGCUAGAAGAAAGCAAGUGCCAAAUUCCAGUCCACUCUCAAGAGAACAGGAUAACUAAGACUGUCAACAGAGGAUUGAGCAUCA
B20: chr12:120444061:120444162:-|3pUTR|ENSG00000170855|unk|FALSE|unique (ssRNA)
RNA: GGGAGUUCUACAGUCCGACGAUCAAUUGUCAACCUGCAUAUCCUAAAAAUGUCAAAAUGCUGCAUCUGGUUAAAUGUCGGGGUAGGGGGGAAGCUGAAGGUGCUCGCUUCAUUUGCCUUGUUUACUCAUCCUGCCCUGUAAUGCAACAGAGGAUUGAGCAUCA
B21: ENSG00000070961:be:win_2901|CDS|ENSG00000070961|bound_else_gene|NA|bound_elsewhere_windowed (ssRNA)
RNA: GGGAGUUCUACAGUCCGACGAUCUCCUUCAGAACAUUAUACUAUUGUUUUUAAUACCUUUGUGCUGAUGCAACUUUUCAACGAAAUAAAUGCCCGGAAAAUUCAUGGUGAAAGAAAUGUAUUCGAAGGAAUCUUUAACAAUGCCAACAGAGGAUUGAGCAUCA
B22: chr1:161171309:161171815:-|three_prime_utr|ENSG00000158850|control|control|control (ssRNA)
RNA: GGGAGUUCUACAGUCCGACGAUCACCCUCAGCUCCUCACUGUUCUCAGAGGGAUGUGAGGGAACUGAACUCUGGUGCCGUGCUAGGGGGUAGGGGCCUCUCCCUCACUGCUGGACUGGAGCUGGGCUCCUGUAGACCUGAGGGCAACAGAGGAUUGAGCAUCA

The other results are listed elsewhere or left out.

For this test, the target named is MSI1 full-length (mouse, UniProt Q61474 1-362). The test can be described thus: nsRBNS (natural sequence RNA bind-n-seq); RBNS binding buffer (assumed for nsRBNS): 25 mM Tris pH 7.5, 150 mM KCl, 3 mM MgCl2, 0.01% Triton X-100, 500 ug/ml BSA, 20 U/ml SUPERase-In, 4 C; UNK is unkempt and MSI1 is Musashi-1; names of the RNAs are library labels; protein concentration not given here; high values mean tight binding.
UniProt Q61474, sequence (Q61474 whole entry): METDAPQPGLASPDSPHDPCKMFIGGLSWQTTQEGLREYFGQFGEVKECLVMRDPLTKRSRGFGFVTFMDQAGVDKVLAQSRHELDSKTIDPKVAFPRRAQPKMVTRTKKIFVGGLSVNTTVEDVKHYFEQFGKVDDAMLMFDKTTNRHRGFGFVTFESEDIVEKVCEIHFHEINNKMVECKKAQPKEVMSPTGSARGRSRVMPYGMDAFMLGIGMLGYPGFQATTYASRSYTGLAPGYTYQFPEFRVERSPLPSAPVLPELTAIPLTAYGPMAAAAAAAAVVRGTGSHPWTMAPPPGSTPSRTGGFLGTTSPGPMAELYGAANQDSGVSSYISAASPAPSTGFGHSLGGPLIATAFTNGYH
B1 yielded a binding signal of 0.763 enrichment R.
For B2, the binding signal is 1.93 enrichment R.
B3: the binding signal is 0.706 enrichment R.
Then B4, with 0.451 enrichment R.
As for B5, the binding signal is 0.787 enrichment R.
For the molecule B6, the binding signal is 0.919 enrichment R.
Take B7: the binding signal is 0.338 enrichment R.
On to B8, for which the binding signal stood at 1.54 enrichment R.
With B9, the binding signal came out at 2.13 enrichment R.
Then B10, with 0.296 enrichment R; and B11, with 1.41 enrichment R.
In the case of B12 it was 3.86 enrichment R; in that of B13, 5.38 enrichment R; in that of B14, 1.98 enrichment R.
As to B15, the binding signal was found to be 0.697 enrichment R.
In the case of B16 it was 0.308 enrichment R; in that of B17, 0.99 enrichment R; in that of B18, 2.45 enrichment R.
With B19, the binding signal is 0.324 enrichment R.
Regarding B20, the binding signal came out at 0.416 enrichment R.
Take B21: the binding signal worked out at 0.352 enrichment R.
With B22, the binding signal turned out to be 0.493 enrichment R.
